The supplement of paper PMC9446081
In all, about 39,000 compounds went through this assay and about 220 (0.56%) showed activity. This is one part of the list.
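Note: static incubation at 37 °C against the wild-type strain, values averaged over two biological replicates.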

What follows are compounds tested on Escherichia coli K-12 BW25113 (assay: relative growth (OD600 normalised to plate interquartile mean) (fraction); higher = less growth inhibition, active = 0.2 or less). Conditions: 50 µM; LB; incubation time: overnight (16-24 h).
For `COc1ccccc1CN1C(=O)c2ccccc2[C@@]2(Cc3ccccc3N(CCCN(C)C)C2=O)[C@@H]1c1ccc(CO)cc1`, the relative growth was inactive: 1.01. In the case of `COc1ccc(S(=O)(=O)N(C)C[C@@H]2Oc3c(NC(=O)C4CCOCC4)cccc3C(=O)N([C@@H](C)CO)C[C@@H]2C)cc1`, the relative growth is reported as inactive: 0.983. `C[C@H](NC(=O)C[C@H]1CC[C@H](NC(=O)CN2CCOCC2)[C@@H](CO)O1)c1ccccc1` was tested, and the relative growth was inactive: 1. For `C[C@@H]1CN([C@H](C)CO)C(=O)c2cccc(NS(=O)(=O)c3ccc(Cl)cc3)c2O[C@H]1CN(C)C(=O)Nc1ccc(C(F)(F)F)cc1`, the relative growth was inactive: 1. For `C[C@@H]1CN([C@@H](C)CO)C(=O)Cc2cc(NS(=O)(=O)c3cn(C)cn3)ccc2O[C@H]1CN(C)S(=O)(=O)c1ccc(Cl)cc1`, the relative growth was inactive: 1.01. In the case of `CN1CCN(C(=O)C[C@@H]2C[C@@H]3c4cc(NC(=O)c5ccc6c(c5)OCO6)ccc4O[C@@H]3[C@H](CO)O2)CC1`, the relative growth is reported as inactive: 1.02. For `C[C@@H]1CN([C@H](C)CO)C(=O)c2cccc(NC(=O)C3CC3)c2O[C@@H]1CN(C)Cc1ccc(-c2ccccc2)cc1`, the relative growth was inactive: 0.921. `C[C@H](CO)N1C[C@H](C)[C@H](CN(C)C(=O)c2ccncc2)Oc2ncc(C#CC3CCCCC3)cc2C1=O` was tested, and the relative growth was inactive: 0.993. In the case of `COc1ccc(S(=O)(=O)Nc2ccc3c(c2)C(=O)N([C@H](C)CO)C[C@H](C)[C@@H](CN(C)CC2CC2)O3)cc1`, the relative growth is reported as inactive: 1.03. With `COc1ccc(NC(=O)Nc2ccc3c(c2)C(=O)N([C@H](C)CO)C[C@H](C)[C@@H](CN(C)S(=O)(=O)c2cccs2)OCCCC[C@@H](C)O3)cc1` the relative growth was inactive: 1.04. `C[C@@H]1CN([C@H](C)CO)C(=O)CCCn2cc(nn2)CO[C@@H]1CN(C)S(=O)(=O)c1ccc(Cl)cc1` was tested, and the relative growth was inactive: 1.03. In the case of `CCS(=O)(=O)Nc1ccc2c(c1)C(=O)N(C)C[C@@H](OC)[C@H](C)CN(C(=O)c1ccc3c(c1)OCO3)[C@H](C)CO2`, the relative growth is reported as inactive: 1.02. For `COc1ccc(CCNC(=O)[C@@]2(Cc3ccccc3I)c3ccccc3C(=O)N(Cc3ccccc3)[C@H]2c2ccc(COC(=O)NCCCCCC(=O)NO)cc2)cc1`, the relative growth was inactive: 0.977. `COCC(=O)N(C)C[C@@H]1Oc2cc(-c3ccc(C#N)cc3)ccc2S(=O)(=O)N([C@@H](C)CO)C[C@@H]1C` was tested, and the relative growth was inactive: 0.952. With `COc1ccc(NC(=O)Nc2ccc3c(c2)C(=O)N([C@@H](C)CO)C[C@H](C)[C@@H](CN(C)C(=O)Cc2ccccc2)OCCCC[C@H](C)O3)cc1` the relative growth was inactive: 1.02. For `COc1ccc(S(=O)(=O)Nc2ccc3c(c2)C(=O)N([C@@H](C)CO)C[C@H](C)[C@H](CN(C)Cc2ccccc2)OCCCC[C@H](C)O3)cc1`, the relative growth was inactive: 1. `CC(=O)O.N=C(N)NN=Cc1c(Cl)cccc1Cl` was tested, and the relative growth was inactive: 0.885. In the case of `C[C@@H]1CN([C@@H](C)CO)C(=O)Cc2cc(NC(=O)Cc3cn(C)c4ccccc34)ccc2O[C@H]1CN(C)Cc1ccc(Oc2ccccc2)cc1`, the relative growth is reported as inactive: 1.01. For `O=C(C[C@H]1C[C@@H]2c3cc(NS(=O)(=O)c4ccc(F)cc4)ccc3O[C@@H]2[C@H](CO)O1)NCc1cccc(F)c1`, the relative growth was inactive: 1.04. With `Cl.Clc1ccccc1CN1CCc2sccc2C1` the relative growth was inactive: 0.983. `Cc1ccc(C(=O)c2ccc(Oc3ccccc3)cc2)cc1` was tested, and the relative growth was inactive: 1.02. For `O=C(C[C@H]1C[C@H]2c3cc(NC(=O)c4ccc5c(c4)OCO5)ccc3O[C@H]2[C@@H](CO)O1)NCc1ccccn1`, the relative growth was inactive: 1.02. In the case of `C[C@H](C(=O)O)c1ccc(C2CCCCC2)c2ccccc12`, the relative growth is reported as inactive: 0.98. For `COc1cccc(CNC(=O)c2cc3c(c(-c4cccc(-c5ccc(C#N)cc5)c4)n2)[C@@H](CCO)N([S@](=O)C(C)(C)C)C3)c1`, the relative growth was inactive: 0.974. With `C[C@@H]1CN([C@H](C)CO)C(=O)c2cccc(NC(=O)Nc3ccccc3)c2O[C@@H]1CN(C)C(=O)Nc1cccc2ccccc12` the relative growth was inactive: 1.01. For `C=CC1=C(C)c2cc3[nH]c(cc4nc(cc5[nH]c(cc1n2)c(C)c5CCC(=O)O)C(CCC(=O)O)=C4C)c(C)c3C=C`, the relative growth was inactive: 1.04. With `CCN1OCN(c2nc(N(C)C)nc(N(C)C)n2)C1=N` the relative growth was inactive: 0.95. In the case of `C=C(C)Cn1c(N2CCN(CCO)CC2)nc2c1c(=O)n(C)c(=O)n2C`, the relative growth is reported as inactive: 0.985. `Cc1noc(C)c1NC(=O)N(C)C[C@@H]1OCCCC[C@H](C)Oc2ccc(NC(=O)Cc3ccccc3)cc2C(=O)N([C@H](C)CO)C[C@H]1C` was tested, and the relative growth was inactive: 0.998. `CC(=O)NCC(=O)N1CCC2(CC1)CN(c1cnn(C)c1)C(=O)CO2` was tested, and the relative growth was inactive: 1.01. In the case of `C[C@@H]1CN([C@H](C)CO)C(=O)c2cc(NC(=O)CCN3CCOCC3)ccc2O[C@H]1CN(C)S(=O)(=O)c1cn(C)cn1`, the relative growth is reported as inactive: 1.04. In the case of `C[C@@H]1CN([C@H](C)CO)C(=O)c2cc(NC(=O)Nc3cccc4ccccc34)ccc2O[C@@H](C)CCCCO[C@H]1CN(C)C(=O)NC1CCCCC1`, the relative growth is reported as inactive: 1.02. In the case of `CC(C=CC1=C(C)CCCC1(C)C)=CC=CC(C)=CC(=O)O`, the relative growth is reported as inactive: 0.95. With `C[C@H](CO)N1C[C@H](C)[C@H](CN(C)S(C)(=O)=O)OCCCC[C@H](C)Oc2ccc(NC(=O)c3ccncc3)cc2C1=O` the relative growth was inactive: 1.01. For `Cn1nnc(NCc2ccccc2)n1`, the relative growth was inactive: 0.994. `C[C@@H]1CN([C@@H](C)CO)C(=O)c2cccc(NS(C)(=O)=O)c2O[C@H]1CN(C)Cc1ccc(C(=O)Nc2ccccc2N)cc1` was tested, and the relative growth was inactive: 0.992. `CC=NN(C)C=O` was tested, and the relative growth was inactive: 1.05. `CC(C)NC(=O)N(C)C[C@H]1Oc2cc(C#Cc3ccc(F)cc3)ccc2S(=O)(=O)N([C@@H](C)CO)C[C@H]1C` was tested, and the relative growth was inactive: 1.02. In the case of `C[C@@H]1CN([C@H](C)CO)C(=O)c2cc(NC(=O)Nc3ccc(C(F)(F)F)cc3)ccc2O[C@H]1CN(C)S(C)(=O)=O`, the relative growth is reported as inactive: 0.968. In the case of `C[C@@H]1CN([C@H](C)CO)C(=O)CCCn2nncc2CO[C@@H]1CN(C)S(=O)(=O)c1ccc(C#N)cc1`, the relative growth is reported as inactive: 1.01. In the case of `COC[C@H]1CN(C)N=C(C2CC2)O1`, the relative growth is reported as inactive: 1.01. In the case of `C[C@H]1CCCCO[C@@H](CN(C)C(=O)NC2CCCCC2)[C@@H](C)CN([C@@H](C)CO)C(=O)c2cc(NC(=O)CCC(F)(F)F)ccc2O1`, the relative growth is reported as inactive: 0.99. `COc1ccc(S(=O)(=O)N(C)C[C@@H]2Oc3ncc(-c4ccncc4)cc3C(=O)N([C@@H](C)CO)C[C@@H]2C)cc1` was tested, and the relative growth was inactive: 1.01. With `CN(C)C(=O)N1CC2(CCN(S(=O)(=O)N(C)C)CC2)[C@]2(CCN(C)C2=O)C1` the relative growth was inactive: 0.997. `O=C(C[C@H]1C[C@H]2c3cc(NC(=O)c4cccnc4)ccc3O[C@H]2[C@@H](CO)O1)NCc1cc(F)ccc1F` was tested, and the relative growth was inactive: 1. In the case of `CCCNC(=O)[C@@]1(Sc2ccc(C)cc2)CC(=O)N(Cc2ccccc2C(F)(F)F)[C@@H]1c1ccc(CO)cc1I`, the relative growth is reported as inactive: 0.99. With `C[C@H]1O[C@@H](O[C@H]2[C@@H](O)C[C@H](O[C@H]3[C@@H](O)C[C@H](O[C@H]4CC[C@@]5(C)[C@H](CC[C@@H]6[C@@H]5CC[C@]5(C)[C@@H](C7=CC(=O)OC7)CC[C@]65O)C4)O[C@@H]3C)O[C@@H]2C)C[C@H](O)[C@@H]1O` the relative growth was inactive: 0.997. For `C[C@H]1CN([C@@H](C)CO)C(=O)c2cc(NC(=O)CCN3CCOCC3)ccc2O[C@@H]1CN(C)S(=O)(=O)c1cccs1`, the relative growth was inactive: 0.975. For `CCOC(=O)CSc1nnc2c3sc4nc(N5CCOCC5)c5c(c4c3ncn12)CC(C)(C)OC5`, the relative growth was inactive: 1.01. With `CC(C)(C)[S@@](=O)N1Cc2cc(C(=O)NCc3ccc4c(c3)OCO4)nc(-c3cccc(-c4cccnc4)c3)c2[C@H]1CCO` the relative growth was inactive: 1.02. With `Cn1c(=O)[nH]c(=O)c2c1ncn2CCN1CCOCC1` the relative growth was inactive: 0.985. `C[C@H](CO)N1C[C@H](C)[C@H](CN(C)C(=O)Nc2ccccc2C(F)(F)F)OCc2ccccc2-c2c(n(C)c3ccccc23)C1=O` was tested, and the relative growth was inactive: 1.04. With `COc1ccc(CN(C)C[C@H]2Oc3ccc(NC(=O)C4CC4)cc3CC(=O)N([C@H](C)CO)C[C@H]2C)cc1` the relative growth was inactive: 0.991. In the case of `C[C@H](CO)N1C[C@H](C)[C@H](CN(C)Cc2ccncc2)Oc2ccc(NS(=O)(=O)c3ccc(F)cc3)cc2CC1=O`, the relative growth is reported as inactive: 1.02. With `Cc1noc(C)c1NC(=O)Nc1ccc2c(c1)C(=O)N([C@@H](C)CO)C[C@H](C)[C@@H](CN(C)C(=O)Nc1c(C)noc1C)OCCCC[C@H](C)O2` the relative growth was inactive: 0.997. In the case of `C[C@@H]1CN([C@H](C)CO)C(=O)c2cc(NC(=O)CCCN(C)C)ccc2O[C@@H](C)CCCCO[C@@H]1CN(C)Cc1ccc(C(F)(F)F)cc1`, the relative growth is reported as inactive: 0.931. With `CC(=O)/C(C)=N/O` the relative growth was inactive: 1.01. In the case of `CN(C)CC#Cc1ccc([C@H]2[C@@H](CO)N3C(=O)CN(C(=O)c4cccnc4)C[C@@H]23)cc1`, the relative growth is reported as inactive: 0.991. In the case of `C[C@@H]1CN([C@H](C)CO)C(=O)c2cc(NC(=O)CCCCCC(=O)Nc3ccccc3N)ccc2O[C@@H]1CN(C)C(=O)Nc1ccc(F)cc1`, the relative growth is reported as inactive: 0.967. For `C[C@@H]1CN([C@@H](C)CO)C(=O)c2cccc(NS(=O)(=O)c3cn(C)cn3)c2O[C@@H]1CN(C)C(=O)Nc1ccc2c(c1)OCO2`, the relative growth was inactive: 0.987. `C[C@H](NC(=O)N(C)C[C@@H]1OCc2ccccc2-c2ccccc2C(=O)N([C@@H](C)CO)C[C@@H]1C)c1ccccc1` was tested, and the relative growth was inactive: 0.987. In the case of `C[C@@H]1CN([C@@H](C)CO)C(=O)c2c(c3ccccc3n2C)-c2ccccc2CO[C@@H]1CN(C)Cc1ccc(Oc2ccccc2)cc1`, the relative growth is reported as inactive: 1.01.
